From patent EP4695453A1 (dated 2026)

Target: T1, Recombinant human CD137-His (human, UniProt Q07011 24-186)
T1 construct: Coated at 2 ug/mL on the ELISA plate; not shown: His tag
Test: ELISA, plate-coated human CD137-His, anti-human IgG (Fc specific)-HRP

T1 sequence (Q07011 24-186 limits assumed): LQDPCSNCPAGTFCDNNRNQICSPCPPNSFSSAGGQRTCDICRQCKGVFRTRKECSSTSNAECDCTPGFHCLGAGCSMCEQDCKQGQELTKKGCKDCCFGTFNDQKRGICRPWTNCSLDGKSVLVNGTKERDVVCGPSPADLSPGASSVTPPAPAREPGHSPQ

- binding result: binds
B1: TY28974 (Fc fusion)
chain: EVQLLESGGGEVQPGGSLRLSCAASGFSFSINAMGWYRQAPGKRREFVAAIESGRNTVYAESVKGRFTISRDNAKNTVYLQMSSLRAEDTAVYYCGLLKGNRVVSPSVAYWGQGTLVTVKP[skipping human IgG1 Fc]
notes: VHH single domain antibody (CD137-targeting VH domain of INBRX-105) without masking peptide, fused to a human Fc domain; also called parental VHH-Fc antibody; anti-CD137 VHH-Fc antibody
